In paper PMC6919601, “Identification of Plasmodium dipeptidyl aminopeptidase allosteric inhibitors by high throughput screening” (PLoS ONE, 2019):
Among all 110,000 compounds or so, about 230 (0.21%) showed an effect of 50% or more. The list shows a part of the results.

Each compound was assayed against DPAP1 (Plasmodium falciparum, UniProt Q8IIJ9) (assay: primary screen, percent inhibition; read by cleavage of a fluorogenic dipeptide substrate; higher = more effect of the substance).
Set-up: species or system P. falciparum D10 trophozoite lysates; single well
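Note: 30 min substrate incubation versus DMSO and 10 µM JCP410 controls.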

Chain of DPAP1 (Q8IIJ9 whole entry, looked up): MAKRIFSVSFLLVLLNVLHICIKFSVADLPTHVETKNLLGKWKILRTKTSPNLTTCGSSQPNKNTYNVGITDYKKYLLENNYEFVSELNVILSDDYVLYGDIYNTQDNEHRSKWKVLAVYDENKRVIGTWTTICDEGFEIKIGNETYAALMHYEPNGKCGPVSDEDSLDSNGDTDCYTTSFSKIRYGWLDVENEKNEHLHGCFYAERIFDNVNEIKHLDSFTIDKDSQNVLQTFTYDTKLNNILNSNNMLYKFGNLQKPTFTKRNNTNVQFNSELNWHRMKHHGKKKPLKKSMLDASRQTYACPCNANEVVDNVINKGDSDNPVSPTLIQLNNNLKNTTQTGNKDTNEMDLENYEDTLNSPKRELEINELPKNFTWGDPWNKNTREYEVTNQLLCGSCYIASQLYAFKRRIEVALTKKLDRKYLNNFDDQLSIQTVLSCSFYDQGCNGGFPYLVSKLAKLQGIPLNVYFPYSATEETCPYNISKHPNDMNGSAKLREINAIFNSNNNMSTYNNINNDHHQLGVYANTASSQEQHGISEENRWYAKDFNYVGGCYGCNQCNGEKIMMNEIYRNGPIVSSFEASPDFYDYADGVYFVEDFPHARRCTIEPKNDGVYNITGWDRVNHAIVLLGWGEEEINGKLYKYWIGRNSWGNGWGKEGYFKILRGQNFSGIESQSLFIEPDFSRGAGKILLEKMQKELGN

SMILES | % Inhibition @ 10 uM
COc1cccc(-c2cc(C(=O)O)c3cc(C)ccc3n2)c1 | -3.92%
Cc1noc(/C=C/N(C)C)c1S(=O)(=O)N1CCCC(C(=O)NC(C)c2ccccc2)C1 (stereo not drawn) | -4.69%
Clc1ccccc1OCc1nnc(-c2ccccc2Cl)o1 | 2.14%
CCN(CC)CCCOc1ccccc1OC | -2.54%
Cc1ccc2c(c1)-c1onc(C(=O)N(C)CCC#N)c1CO2 | -4.99%
CC(C(=O)Nc1ccccn1)c1cccc(C(=O)c2ccccc2)c1 (stereo not drawn) | -3.34%
CCCCCOc1ccc(C2C(C(=O)OCCOC)=C(C)N=C3SCCC(=O)N32)cc1 (stereo not drawn) | 2.24%
O=C(O)C1CC(=O)N(CCc2ccccc2)/C(=N\c2ccccc2)S1 (stereo not drawn) | 0.924%
CCC1CCCCN1C(=O)c1cnn(-c2ccc(C)cc2)c1-n1cccc1 (stereo not drawn) | -8.6%
O=c1oc2ccccc2cc1C1=Nn2c(nnc2-c2cccc(F)c2)SC1 | -2.38%
O=C(/C=C/c1ccccc1Cl)NC1CCS(=O)(=O)C1 (stereo not drawn) | -2.35%
O=C(Nc1ccc2c(c1)OCCO2)c1cnccn1 | -3.92%
Cc1ccc(NC(=O)CSc2nc(C)c3c(n2)CCCC3)cc1 | 47.6%
CC(C)(C)c1cc(CN2CCN(c3ccc([N+](=O)[O-])cc3)CC2)cc(C(C)(C)C)c1O | -1.98%
O=C1CC(c2cccnc2)Nc2ccc3ccccc3c21 (stereo not drawn) | -2.64%
CC(C)CC(NC(=O)c1ccco1)C(=O)O (stereo not drawn) | 4.54%
CCN1C=C(Cc2cccs2)C2=C(C1)C(c1cccs1)C(C#N)=C(N)O2 (stereo not drawn) | 2.32%
O=C(Cc1ccccc1F)Nc1ccccn1 | 0.907%
Cc1onc(-c2ccccc2)c1C(=O)NC(C)c1ccccc1 (stereo not drawn) | -2.6%
CC(C)CCC(=O)N[C@@H](CC1CCCCC1)C(=O)NCC#N | -3.7%
N#Cc1c(-c2ccc(Br)cc2)cc(-c2ccccc2)nc1SCc1ccccc1 | -3.77%
CCOC(=O)C1=C(CN2CCC3(CC2)OCCO3)NC(=O)NC1c1ccc(F)cc1 (stereo not drawn) | -2.83%
OC1(c2ccc(Br)cc2)CCN(Cc2cccc(Cl)c2)CC1 | -3.6%
COc1ccccc1OCc1nc(C#N)c(NCc2ccc(F)cc2)o1 | 2.38%
Cc1ccc(OCCSc2ncnc3[nH]cnc23)cc1 | 1.92%
O=C1c2ccccc2S(=O)(=O)N1C1c2ccccc2Oc2ccccc21 | -5.7%

SMILES | % Inhibition @ 10 uM
O=S1(=O)C=CC(N2CCOCC2)C1 (stereo not drawn) | 3.98%
CC1=C(C(=O)Nc2cc(C)ccn2)C(c2ccccc2C)C2=C(O)CCCC2=N1 (stereo not drawn) | -1.3%
COc1ccc(-c2cc(C(=O)NC3CCCCCCC3)c3ccccc3n2)cc1OC | -3.77%
C=CCOc1ccc(/C=C2\SC(=N)N(c3nccs3)C2=O)cc1OCC | 4.05%
Cc1nn(Cc2ccc(F)cc2)c(C)c1NC(=O)C1=CC(c2ccco2)=NS(=O)(=O)N1C | -2.84%
O=S1(=O)CC(O)C(N2CCCCC2)C1 (stereo not drawn) | 5.92%
O=c1nc2s/c(=C\c3ccco3)c(=O)n2nc1Cc1ccccc1 | -7.15%
CCCCC(NC(=O)Cc1ccccc1)C(=O)O (stereo not drawn) | -2.87%
CN(CC(=O)Nc1ncc(Br)s1)S(=O)(=O)c1cccc2cccnc12 | -0.692%
Cc1cc(Sc2ccc(Cl)cc2)ncn1 | -4.08%
CCCCOC(=O)CSc1nc2cc(OCC)ccc2[nH]1 | 1.88%
Cc1ccc(CNC(=O)c2ccc(C/N=c3\c(O)c(O)\c3=N/C3CCCCC3)cc2)cc1 | 1.15%
COc1ccc(NC(=O)C2CCN(S(=O)(=O)c3c(C)cc(C)cc3C)CC2)cc1Cl | 2.01%
Brc1cc(CN2CCOCC2)c(-c2ccccc2)s1 | 3.8%
COc1ccc(C2CC(=O)C3=C(C2)NC(=O)CC3c2cc(OC)c(OC)c(OC)c2)cc1OC (stereo not drawn) | 0.205%
CCOC(=O)N1CCC(NS(=O)(=O)c2cc(-c3cc(C)no3)ccc2OC)CC1 | 0.163%
Cc1cc(=O)n2nc(N3CCC(C(=O)NCc4ccccn4)CC3)sc2n1 | 4.55%
CCc1cc2c(cc3c(=O)n(CC(=O)N4CCCCCC4)nc(CC)n32)s1 | 3.29%
Cc1ccccc1CNC(=O)Cn1ncn2cccc2c1=O | -7.87%
CC1CCCC(NC(=O)c2ccc3c(SCC(=O)O)c4c(nc3c2)CCC4)C1C (stereo not drawn) | -0.495%
Cc1cc(C)c(S(=O)(=O)N(C)CC(=O)Nc2ccc(C(F)(F)F)cc2)c(C)c1 | -2.29%
COc1ccc(C2CC(c3ccc(C(C)C)cc3)Nc3nnnn32)cc1OC (stereo not drawn) | 3.45%
OCCn1c2ccccc2c2cc(Cl)ccc21 | 0.135%
Nc1nc2ccc(Cc3nc4ccccc4o3)cc2s1 | -4.78%
CCOc1ccc(CNCc2c(C(=O)O)n(CC)c3cc(C)ccc23)cc1 | 11.8%
O=C1c2oc3ccccc3c(=O)c2C(c2ccc(O)cc2)N1c1nncs1 (stereo not drawn) | 2.1%

SMILES | % Inhibition @ 10 uM
COc1ccc(-n2cccc2/C=C(\C#N)c2nc3ccccc3[nH]2)cc1 | -3.06%
CCOc1cc(Cl)c(C(C)NC(=O)c2ccccc2OC)cc1OCC (stereo not drawn) | -1.28%
Cc1cc(OCC(=O)Nc2sc(C)c(C)c2C(N)=O)c(C(C)C)cc1Br | -5.32%
CN(CC(=O)NCC1CCCO1)S(=O)(=O)c1ccc2[nH]c3c(c2c1)CCCC3 (stereo not drawn) | -5.01%
CCC(Sc1nc2nnc(C)c-2c(N)n1-c1ccc(C)c(Cl)c1)C(=O)NCCOC (stereo not drawn) | 27.5%
COc1ccc2c(c1)C(=O)/C(=C/c1ccc(C)cc1)CC2 | 3.63%
COc1cc(C(=O)NC(C)C(=O)N2CCCCC2)nc2ccccc12 (stereo not drawn) | -8.28%
CCNC(=O)C1CCN(S(=O)(=O)c2ccc(C)cc2)CC1 | -1.92%
O=C(c1ccc(Cl)c(Cl)c1)N1CCN(c2cccc(Cl)c2)CC1 | 1.84%
CC1CCCCN1CN1C(=O)C(=O)c2ccccc21 (stereo not drawn) | -1.84%
CN1CCC(N(C)Cc2ccc([N+](=O)[O-])cc2)CC1 | -3.65%
O=C1/C(=C/c2ccc(F)cc2)Cc2ccccc21 | 0.287%
CC(=O)c1cc(-c2ccccc2)n(CC(=O)N2CCN(Cc3ccccc3)CC2)c1C | -0.176%
Cc1ccc(NC(=O)CN2C(=O)S/C(=C\c3ccc(C(=O)O)cc3)C2=O)cc1Cl | -2.39%
Cc1ccc(OCC(O)CNC(C)C)cc1 (stereo not drawn) | -2.51%
c1ccc(CCN2CCC(NC3CC3)CC2)cc1 | -5.11%
CN(c1cccc(NC(=O)CCSc2ccc(Cl)cc2)c1)S(C)(=O)=O | -5.13%
CCOc1ccc2c(C(F)(F)F)cc(=O)oc2c1C | 2.89%
CN1CCN(C2=C(Cl)C(=O)N(c3cccc(Cl)c3)C2=O)CC1 | -2.53%
CCn1cc(CCCC(=O)NCCCN2C(C)CCCC2C)c2ccccc21 (stereo not drawn) | 6.84%
Cc1ccc(NC(=O)C2CCCN(S(=O)(=O)c3c(C)noc3C)C2)nc1 (stereo not drawn) | 2.39%
COc1ccc(OC)c(-c2cc(C(=O)Nc3ccccc3C(N)=O)c3ccccc3n2)c1 | 2.92%
Cc1ccc(C)c(S(=O)(=O)NCC(=O)Nc2ccccc2F)c1 | -3.83%
CN(C)c1ccc(/C=C/CN2CCCCCC2)cc1 | 0.0792%
CC(=O)c1cccc(-n2nnnc2S(=O)(=O)Cc2cccc(Cl)c2)c1 | -0.0678%
CCN(Cc1ccccc1)C(=O)[C@H]1[C@@H]2C[C@@H]3[C@H]1C(=O)O[C@@H]3C2 | -2.92%

SMILES | % Inhibition @ 10 uM
CC(C)Oc1ccc(C(=O)Nc2cccnc2Cl)cc1 | -3.34%
COc1ccc(S(=O)(=O)N(C)CC(=O)NCc2ccncc2)cc1 | -9.29%
O=c1oc2ccc([N+](=O)[O-])cc2cc1-c1nc2ccccc2o1 | 2.6%
NCCc1c(C(=O)O)[nH]c2ccc(OCc3ccccc3)cc12 | 6.24%
N#CC1=C(N)Oc2c(c(C(F)(F)F)nn2-c2ccccc2)C1c1c(F)cccc1Cl (stereo not drawn) | -0.436%
Cc1cc(NS(=O)(=O)c2ccc(NC(=O)COc3ccccc3C(C)(C)C)cc2)no1 | 9.33%
Cc1cc(C(F)F)n2nc(C(=O)Nc3cnn(Cc4ccc(F)cc4)c3)nc2n1 | 0.778%
COC(=O)c1sc2nc(C)c(C)c(C)c2c1N | -3.77%
CCc1ccc(C2c3c(-c4c(C)cc(C)cc4O)n[nH]c3C(=O)N2CCO)cc1 (stereo not drawn) | 1.67%
O=C(Nc1ccc(S(=O)(=O)N2CCCCCC2)cc1)C1CCCCC1 | 4.57%
Cc1cc(C(F)(F)F)c(C#N)c(S)n1 | 82.2%
CCCS(=O)(=O)N1CCC(C(=O)Nc2ccccc2F)CC1 | -1.65%
Cc1ccccc1OCCCN1CCCC1 | 3.48%
CCn1c2ccccc2c2cc(CN3CCOCC3)ccc21 | -3.15%
O=C(NCc1ccco1)c1cccnc1SCc1ccccc1Cl | 11.4%
Cc1ccc(Cl)c(OCCN2CCNCC2)c1 | 6.45%
COc1cccc(C2CC(C(F)(F)F)n3ncc(C(=O)Nc4cccnc4)c3N2)c1 (stereo not drawn) | 3.35%
CCOC(=O)c1[nH]c(C)c(C(=O)NC(C)(C)C)c1C | 0.0579%
COCCN(Cc1ccco1)C(=O)C1CCN(c2nc(-c3ccc(OC)cc3)no2)CC1 | 7.86%
COCCNC(=O)c1cc2nc(-c3ccccc3)cc(-c3ccccc3)n2n1 | 1.25%
Cc1ccc2c(=O)cc(C(=O)N(Cc3ccccc3)C3CCS(=O)(=O)C3)oc2c1 (stereo not drawn) | -5.08%
CCCCCCNC(=O)c1ccc(OC)cc1 | -2.66%
Cc1cccc(OCCCn2ccnc2)c1C | 2.76%
COc1ccc2[nH]c3c(c2c1)CCNC3c1ccccc1Cl (stereo not drawn) | 2.24%
